For assay [1], the target named is myc-STAT2 (UniProt P52630). Put plainly: co-IP; 293T cells cotransfected with HA-IE1 (wild type or mutant) and myc-tagged partner; at 48 h whole cell lysates immunoprecipitated with anti-Myc antibody and immunoblotted with anti-HA antibody. In general terms: A western blot detects proteins with antibodies after separation by electrophoresis.
Assay [2] has as its target myc-HDAC1 (UniProt Q13547). The description is as above.
The target of assay [3] is myc-HDAC6 (UniProt Q9UBN7). Described as above.
Assay [4] concerns the target myc-HDAC3 (UniProt O15379). Described as above.
Assay [5] deals with myc-HDAC2 (UniProt Q92769). Described as above.
Assay [6] addresses Promyelocytic leukemia protein (PML) (human (endogenous in HF)) (UniProt P29590). In words: co-IP; HF cells infected with UV-HCMV (MOI 3, 8 h) or treated with IFNβ (1 x 10^3 units/ml, 8 h); total lysates, also treated with DNase and RNase; immunoprecipitated with anti-PML antibody (PG-M3), mouse IgG as control; immunoblot.
Assay [7] shares this target. Put plainly: co-IP; uninfected (mock-infected) HF cells; total lysates immunoprecipitated with anti-PML antibody (PG-M3); immunoblot.
The target in assay [8] is T1, HCMV immediate-early (IE) 1 protein, wild type (Towne) (human cytomegalovirus (Towne)) (UniProt P03169).
T1 sequence: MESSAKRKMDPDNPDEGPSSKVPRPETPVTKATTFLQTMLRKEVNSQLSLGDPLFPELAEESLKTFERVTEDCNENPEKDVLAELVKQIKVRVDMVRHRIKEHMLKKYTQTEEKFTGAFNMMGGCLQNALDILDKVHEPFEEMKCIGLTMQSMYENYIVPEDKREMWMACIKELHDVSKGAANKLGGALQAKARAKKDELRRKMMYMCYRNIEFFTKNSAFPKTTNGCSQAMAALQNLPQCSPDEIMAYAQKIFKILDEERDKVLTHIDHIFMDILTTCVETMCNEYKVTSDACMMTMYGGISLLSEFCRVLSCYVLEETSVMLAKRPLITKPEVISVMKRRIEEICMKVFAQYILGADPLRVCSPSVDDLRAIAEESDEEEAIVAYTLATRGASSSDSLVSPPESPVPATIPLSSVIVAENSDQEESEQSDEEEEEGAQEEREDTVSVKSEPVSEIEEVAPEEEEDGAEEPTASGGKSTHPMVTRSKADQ
Put plainly: co-IP; HF cells infected with HCMV (Towne) wild-type (MOI 2, 24 h) or with wild-type, IE1(Δ290–320) or IE1(Δ421–475) virus (MOI 2, 12 h); total lysates immunoprecipitated with anti-IE1 antibody (CH443), mouse IgG as control; immunoblot.

By UniProt entry, the sequences of proteins in these tests, tags left out.
UniProt P52630: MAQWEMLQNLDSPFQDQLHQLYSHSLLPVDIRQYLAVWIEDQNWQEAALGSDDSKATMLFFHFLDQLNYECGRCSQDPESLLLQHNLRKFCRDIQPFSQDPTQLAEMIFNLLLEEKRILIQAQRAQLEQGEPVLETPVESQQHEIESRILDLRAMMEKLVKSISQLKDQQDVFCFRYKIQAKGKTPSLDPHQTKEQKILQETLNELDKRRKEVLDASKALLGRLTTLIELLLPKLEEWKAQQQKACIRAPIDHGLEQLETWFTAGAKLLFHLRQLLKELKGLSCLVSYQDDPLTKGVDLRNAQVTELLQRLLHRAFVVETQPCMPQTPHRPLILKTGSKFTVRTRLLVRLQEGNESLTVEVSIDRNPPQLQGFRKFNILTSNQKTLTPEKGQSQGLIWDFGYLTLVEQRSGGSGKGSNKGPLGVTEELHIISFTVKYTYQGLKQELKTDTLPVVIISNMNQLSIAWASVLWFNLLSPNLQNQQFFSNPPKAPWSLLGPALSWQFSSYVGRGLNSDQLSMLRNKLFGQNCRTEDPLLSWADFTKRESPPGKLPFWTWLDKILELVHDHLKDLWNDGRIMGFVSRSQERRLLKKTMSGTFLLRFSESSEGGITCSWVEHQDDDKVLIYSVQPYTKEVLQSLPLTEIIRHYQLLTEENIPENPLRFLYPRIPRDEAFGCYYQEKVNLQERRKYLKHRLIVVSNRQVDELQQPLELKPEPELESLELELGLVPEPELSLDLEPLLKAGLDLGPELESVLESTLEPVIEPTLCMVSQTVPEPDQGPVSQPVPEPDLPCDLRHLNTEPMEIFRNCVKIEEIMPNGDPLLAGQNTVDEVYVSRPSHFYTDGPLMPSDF
UniProt Q13547: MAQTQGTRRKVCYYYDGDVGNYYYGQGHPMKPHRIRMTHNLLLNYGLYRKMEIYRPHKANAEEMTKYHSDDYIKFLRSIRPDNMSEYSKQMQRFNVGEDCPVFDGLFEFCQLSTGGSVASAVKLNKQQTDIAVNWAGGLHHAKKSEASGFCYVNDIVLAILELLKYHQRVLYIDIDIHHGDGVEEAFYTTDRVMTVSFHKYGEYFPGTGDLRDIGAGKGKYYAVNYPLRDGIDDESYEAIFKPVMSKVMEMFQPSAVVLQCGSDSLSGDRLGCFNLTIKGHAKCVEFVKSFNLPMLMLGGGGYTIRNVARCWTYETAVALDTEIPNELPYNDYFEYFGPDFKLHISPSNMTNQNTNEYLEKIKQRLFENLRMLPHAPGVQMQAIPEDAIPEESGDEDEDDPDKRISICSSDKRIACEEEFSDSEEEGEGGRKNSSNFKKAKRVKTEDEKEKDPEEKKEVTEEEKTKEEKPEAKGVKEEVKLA
UniProt Q9UBN7: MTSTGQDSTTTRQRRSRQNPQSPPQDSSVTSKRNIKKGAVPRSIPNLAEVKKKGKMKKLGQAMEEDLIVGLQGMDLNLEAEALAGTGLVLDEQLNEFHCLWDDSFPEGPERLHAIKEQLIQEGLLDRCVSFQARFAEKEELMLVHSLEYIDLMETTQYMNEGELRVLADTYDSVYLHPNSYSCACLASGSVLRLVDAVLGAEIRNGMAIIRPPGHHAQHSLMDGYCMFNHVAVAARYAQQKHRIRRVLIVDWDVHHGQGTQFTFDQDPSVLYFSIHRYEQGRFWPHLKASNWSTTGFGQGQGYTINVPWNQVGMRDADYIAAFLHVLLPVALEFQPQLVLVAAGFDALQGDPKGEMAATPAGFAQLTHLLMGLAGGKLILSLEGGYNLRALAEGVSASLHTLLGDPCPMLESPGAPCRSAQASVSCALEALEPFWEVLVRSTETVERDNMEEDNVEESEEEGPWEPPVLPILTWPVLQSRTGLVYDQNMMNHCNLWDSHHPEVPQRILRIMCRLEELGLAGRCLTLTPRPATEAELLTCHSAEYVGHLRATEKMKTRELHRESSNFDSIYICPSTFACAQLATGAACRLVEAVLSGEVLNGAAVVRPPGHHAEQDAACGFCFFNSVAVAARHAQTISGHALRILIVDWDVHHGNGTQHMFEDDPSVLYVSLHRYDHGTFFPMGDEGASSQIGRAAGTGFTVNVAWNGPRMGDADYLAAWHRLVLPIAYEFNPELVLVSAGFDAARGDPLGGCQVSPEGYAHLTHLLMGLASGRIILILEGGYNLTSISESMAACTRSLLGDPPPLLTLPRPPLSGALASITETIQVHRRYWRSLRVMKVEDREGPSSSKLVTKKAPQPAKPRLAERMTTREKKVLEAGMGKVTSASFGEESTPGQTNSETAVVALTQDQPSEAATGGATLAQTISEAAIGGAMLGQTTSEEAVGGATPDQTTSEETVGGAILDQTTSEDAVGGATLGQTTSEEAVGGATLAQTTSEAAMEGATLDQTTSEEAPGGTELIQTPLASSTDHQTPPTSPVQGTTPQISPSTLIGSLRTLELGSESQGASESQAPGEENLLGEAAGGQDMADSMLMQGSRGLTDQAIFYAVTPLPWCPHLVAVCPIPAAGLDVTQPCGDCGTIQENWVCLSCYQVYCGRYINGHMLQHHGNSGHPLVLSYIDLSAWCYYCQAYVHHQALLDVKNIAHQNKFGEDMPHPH
UniProt O15379: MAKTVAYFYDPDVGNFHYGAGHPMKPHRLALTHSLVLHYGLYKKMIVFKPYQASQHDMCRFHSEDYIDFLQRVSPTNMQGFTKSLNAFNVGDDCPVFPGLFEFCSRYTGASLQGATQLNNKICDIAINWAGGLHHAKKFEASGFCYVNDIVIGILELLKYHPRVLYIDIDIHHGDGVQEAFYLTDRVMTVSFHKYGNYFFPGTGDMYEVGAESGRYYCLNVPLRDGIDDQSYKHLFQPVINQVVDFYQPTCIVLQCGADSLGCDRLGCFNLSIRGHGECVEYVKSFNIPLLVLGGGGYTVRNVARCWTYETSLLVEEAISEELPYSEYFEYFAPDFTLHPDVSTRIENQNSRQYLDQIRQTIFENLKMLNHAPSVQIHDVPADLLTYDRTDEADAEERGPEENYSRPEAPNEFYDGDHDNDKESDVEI
UniProt Q92769: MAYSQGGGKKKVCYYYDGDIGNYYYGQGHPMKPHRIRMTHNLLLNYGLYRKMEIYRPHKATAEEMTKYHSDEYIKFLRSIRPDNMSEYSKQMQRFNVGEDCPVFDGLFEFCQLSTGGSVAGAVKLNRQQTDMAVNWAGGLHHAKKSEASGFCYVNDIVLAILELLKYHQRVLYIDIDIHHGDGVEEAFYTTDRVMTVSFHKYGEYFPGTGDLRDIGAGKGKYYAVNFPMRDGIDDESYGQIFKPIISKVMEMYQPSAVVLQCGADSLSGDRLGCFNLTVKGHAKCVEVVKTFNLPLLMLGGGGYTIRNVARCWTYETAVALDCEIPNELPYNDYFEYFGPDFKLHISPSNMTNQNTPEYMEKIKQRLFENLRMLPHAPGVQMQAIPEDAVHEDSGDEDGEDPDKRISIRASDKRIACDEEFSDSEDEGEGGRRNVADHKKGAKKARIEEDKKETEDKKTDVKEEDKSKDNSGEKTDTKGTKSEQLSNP
UniProt P29590: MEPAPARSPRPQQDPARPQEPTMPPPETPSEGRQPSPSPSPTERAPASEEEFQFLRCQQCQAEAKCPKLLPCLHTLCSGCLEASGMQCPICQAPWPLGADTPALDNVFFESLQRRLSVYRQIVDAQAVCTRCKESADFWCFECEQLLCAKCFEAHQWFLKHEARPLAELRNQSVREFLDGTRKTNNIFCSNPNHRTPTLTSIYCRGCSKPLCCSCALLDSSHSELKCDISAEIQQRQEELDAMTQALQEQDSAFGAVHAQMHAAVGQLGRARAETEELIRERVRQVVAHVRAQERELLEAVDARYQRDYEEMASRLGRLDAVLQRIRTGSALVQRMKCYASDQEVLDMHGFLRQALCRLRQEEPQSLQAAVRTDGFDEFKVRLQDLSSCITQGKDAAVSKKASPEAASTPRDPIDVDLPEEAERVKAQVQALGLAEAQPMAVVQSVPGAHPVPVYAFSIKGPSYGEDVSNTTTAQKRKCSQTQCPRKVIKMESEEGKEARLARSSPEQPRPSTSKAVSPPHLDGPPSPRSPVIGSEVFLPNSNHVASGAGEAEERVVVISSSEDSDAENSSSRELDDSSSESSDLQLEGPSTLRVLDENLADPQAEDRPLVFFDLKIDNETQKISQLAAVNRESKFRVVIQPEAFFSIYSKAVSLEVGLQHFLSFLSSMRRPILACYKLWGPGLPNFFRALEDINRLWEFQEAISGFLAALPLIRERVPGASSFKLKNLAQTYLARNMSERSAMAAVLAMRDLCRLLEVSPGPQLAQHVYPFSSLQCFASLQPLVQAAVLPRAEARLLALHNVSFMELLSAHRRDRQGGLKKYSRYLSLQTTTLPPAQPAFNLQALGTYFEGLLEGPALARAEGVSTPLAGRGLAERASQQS
UniProt P42224: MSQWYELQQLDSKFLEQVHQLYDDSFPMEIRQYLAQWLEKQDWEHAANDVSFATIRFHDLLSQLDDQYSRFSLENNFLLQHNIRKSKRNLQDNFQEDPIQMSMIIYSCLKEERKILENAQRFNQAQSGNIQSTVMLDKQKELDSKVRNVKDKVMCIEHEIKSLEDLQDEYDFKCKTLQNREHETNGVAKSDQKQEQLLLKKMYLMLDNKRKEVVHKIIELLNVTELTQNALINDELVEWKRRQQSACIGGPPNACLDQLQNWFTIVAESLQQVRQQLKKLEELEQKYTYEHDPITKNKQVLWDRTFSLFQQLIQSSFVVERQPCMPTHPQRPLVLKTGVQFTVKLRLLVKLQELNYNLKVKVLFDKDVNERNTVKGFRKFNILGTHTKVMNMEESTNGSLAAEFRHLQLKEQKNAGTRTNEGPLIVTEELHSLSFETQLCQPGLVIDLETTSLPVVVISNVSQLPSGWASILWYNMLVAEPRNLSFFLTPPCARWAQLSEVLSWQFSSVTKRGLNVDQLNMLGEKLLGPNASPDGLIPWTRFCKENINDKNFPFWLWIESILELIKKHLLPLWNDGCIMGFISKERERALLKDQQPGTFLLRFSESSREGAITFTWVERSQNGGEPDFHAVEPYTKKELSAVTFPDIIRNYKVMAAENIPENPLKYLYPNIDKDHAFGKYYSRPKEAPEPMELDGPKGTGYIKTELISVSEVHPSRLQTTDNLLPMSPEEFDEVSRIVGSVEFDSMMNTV

Assay [9] concerns the target IE1(Δ290–320), expressed from mutant HCMV (Towne) (human cytomegalovirus (Towne)) (UniProt P03169). The assay is described as above.
Assay [10] addresses IE1(Δ421–475), expressed from mutant HCMV (Towne) (human cytomegalovirus (Towne)) (UniProt P03169). The assay is described as above.
The target in assay [11] is myc-HDAC1 (UniProt Q13547). In words: co-IP; 293T cells cotransfected with HA-IE1 (wild type or mutant) and myc-tagged partner; at 48 h whole cell lysates immunoprecipitated with anti-Myc antibody and immunoblotted with anti-HA antibody. This is another data set of the same source.
In assay [12] the target is myc-HDAC6 (UniProt Q9UBN7). The description is as above. The source holds these as a separate data set.
For assay [13], the target named is myc-HDAC3 (UniProt O15379). Described as above. This is another data set of the same source.
Assay [14] concerns the target myc-STAT2 (UniProt P52630). The description is as above. The source holds these as a separate data set.
Assay [15] addresses myc-HDAC2 (UniProt Q92769). The description is as above. The source holds these as a separate data set.

Where two headings read alike, the source gives them in different places. These are yes or no findings as the source states them, for the method shown. Binding seen in cells or lysates may run through a third protein. Some entries that bind do so weakly or less than the wild type. For some assays here: Where a sequence is shown, tags or fusion partners need not be part of it.

As to “HA-IE1(L174P) (from UniProt P03169 1-491)”, in assay [1], the binding result is “binds”.

Take “HA-IE1(Δ290–320) (from UniProt P03169 1-491)”: the binding entry in [2], in assay [3], in [4] and in assay [5] was “binds” in each case.

As for “HA-IE1(Δ290–320/Δ421–475) (from UniProt P03169 1-491)”, the binding result in assay [2], in [3], in [4] and in assay [5] was “binds” throughout.

As for “HDAC1 (from UniProt Q13547 1-482) (enzyme)”, the binding entry in assay [6] is reported as “binds”; in assay [7], “no binding (condition: uninfected cells)”; in [8] it was “binds”; in assay [9], “binds”; in assay [10], “binds”.

In the case of “HDAC2 (from UniProt Q92769 1-488) (enzyme)”, the binding entry in assay [6] is listed as “binds”; in assay [7], “no binding (condition: uninfected cells)”; in assay [8], “binds”; in assay [9], “binds”; in assay [10], “binds”.

“Promyelocytic leukemia protein (PML) (from UniProt P29590 1-882)”: the binding result in assay [8] was “binds”.

Turning to STAT1 (from UniProt P42224 1-750), the results for the binding result in assay [6], in assay [7] and in [8] were “binds”, “no binding (condition: uninfected cells)” and “binds”, respectively.

Turning to STAT2 (from UniProt P52630 1-851), the binding result is given as “binds” in [6]; “no binding (condition: uninfected cells)” in assay [7]; “binds” in assay [8]; “binds” in [9]; “no binding” in assay [10].

B1: IFN regulatory factor 9 (IRF9) (protein, UniProt Q00978 1-393)
chain: MASGRARCTRKLRNWVVEQVESGQFPGVCWDDTAKTMFRIPWKHAGKQDFREDQDAAFFKAWAIFKGKYKEGDTGGPAVWKTRLRCALNKSSEFKEVPERGRMDVAEPYKVYQLLPPGIVSGQPGTQKVPSKRQHSSVSSERKEEEDAMQNCTLSPSVLQDSLNNEEEGASGGAVHSDIGSSSSSSSPEPQEVTDTTEAPFQGDQRSLEFLLPPEPDYSLLLTFIYNGRVVGEAQVQSLDCRLVAEPSGSESSMEQVLFPKPGPLEPTQRLLSQLERGILVASNPRGLFVQRLCPIPISWNAPQAPPGPGPHLLPSNECVELFRTAYFCRDLVRYFQGLGPPPKFQVTLNFWEESHGSSHTPQNLITVKMEQAFARYLLEQTPEQQAAILSLV
As to B1, in assay [6], the binding result is “no binding”.

B2: HA-IE1 (wild type) (protein, UniProt P03169 1-491)
chain: MESSAKRKMDPDNPDEGPSSKVPRPETPVTKATTFLQTMLRKEVNSQLSLGDPLFPELAEESLKTFERVTEDCNENPEKDVLAELVKQIKVRVDMVRHRIKEHMLKKYTQTEEKFTGAFNMMGGCLQNALDILDKVHEPFEEMKCIGLTMQSMYENYIVPEDKREMWMACIKELHDVSKGAANKLGGALQAKARAKKDELRRKMMYMCYRNIEFFTKNSAFPKTTNGCSQAMAALQNLPQCSPDEIMAYAQKIFKILDEERDKVLTHIDHIFMDILTTCVETMCNEYKVTSDACMMTMYGGISLLSEFCRVLSCYVLEETSVMLAKRPLITKPEVISVMKRRIEEICMKVFAQYILGADPLRVCSPSVDDLRAIAEESDEEEAIVAYTLATRGASSSDSLVSPPESPVPATIPLSSVIVAENSDQEESEQSDEEEEEGAQEEREDTVSVKSEPVSEIEEVAPEEEEDGAEEPTASGGKSTHPMVTRSKADQ
Turning to B2, the binding entry in assay [11], in assay [12], in [13], in assay [14] and in assay [15] was “binds” each time.

B3: ribonucleotide reductase R1 (enzyme, UniProt P23921 1-792)
chain: MHVIKRDGRQERVMFDKITSRIQKLCYGLNMDFVDPAQITMKVIQGLYSGVTTVELDTLAAETAATLTTKHPDYAILAARIAVSNLHKETKKVFSDVMEDLYNYINPHNGKHSPMVAKSTLDIVLANKDRLNSAIIYDRDFSYNYFGFKTLERSYLLKINGKVAERPQHMLMRVSVGIHKEDIDAAIETYNLLSERWFTHASPTLFNAGTNRPQLSSCFLLSMKDDSIEGIYDTLKQCALISKSAGGIGVAVSCIRATGSYIAGTNGNSNGLVPMLRVYNNTARYVDQGGNKRPGAFAIYLEPWHLDIFEFLDLKKNTGKEEQRARDLFFALWIPDLFMKRVETNQDWSLMCPNECPGLDEVWGEEFEKLYASYEKQGRVRKVVKAQQLWYAIIESQTETGTPYMLYKDSCNRKSNQQNLGTIKCSNLCTEIVEYTSKDEVAVCNLASLALNMYVTSEHTYDFKKLAEVTKVVVRNLNKIIDINYYPVPEACLSNKRHRPIGIGVQGLADAFILMRYPFESAEAQLLNKQIFETIYYGALEASCDLAKEQGPYETYEGSPVSKGILQYDMWNVTPTDLWDWKVLKEKIAKYGIRNSLLIAPMPTASTAQILGNNESIEPYTSNIYTRRVLSGEFQIVNPHLLKDLTERGLWHEEMKNQIIACNGSIQSIPEIPDDLKQLYKTVWEISQKTVLKMAAERGAFIDQSQSLNIHIAEPNYGKLTSMHFYGWKQGLKTGMYYLRTRPAANPIQFTLNKEKLKDKEKVSKEEEEKERNTAAMVCSLENRDECLMCGS
B3: the binding entry in assay [6] is listed as “no binding”.
